The record followed here is CN112625136A (SANYOU BIOPHARMACEUTICALS SHANGHAI CO LTD; SHANGHAI ZJ BIO …, dated 2021).

Test [1] concerns the target T1, S蛋白RBD-His(319Arg-532Asn) (2019-nCoV (SARS-CoV-2)).
The target of test [2] is T1, S蛋白RBD-His(319Arg-532Asn). Briefly: blocking ELISA as in Example 6.1: ACE2-huFc coated, biotin-labelled RBD-His.

B1: P14-F8 (Fc fusion)
chain: EVQLVESGGGLVQPGGSLRLSCAASGFRFGSYYMSWVRQAPGKAPEWVSDINTRGETTRYSDSVKGRFTIARDNANNTVFLFMNRLKPEDTAVYYCAVAASGDTFEGRSDPDYWGQGTLVTVSS[human IgG1 Fc with changes not spelt out]
notes: also called P14-F8-Parental; 候选驼源纳米抗体P14-F8
With B1, in test [1], binding was put at a Kd of 18.2 nM, the koff turned out to be 0.00251 s⁻¹ and the kon turned out to be 138000 M⁻¹ s⁻¹. In test [2], this molecule came in with an IC50 of 1.89 nM.
